Source: PubChem BioAssay (NCATS)
The other results are listed elsewhere or left out. These are further read-outs of the screen, such as a control signal, another cell line or another target. No call is given for them. For part of these data: The list favours compounds with an active or inconclusive main result. Potencies come from curve fits of mixed quality, noted in brackets.

Legend:
[1] = qHTS drug screen for cell cycle checkpoint inhibitors in PARPi-resistant BRCA-mutant ovarian cancer cell lines. (AID 1963452); details: PEO1/OlaR viability, CellTiter-Glo luminescence, 96 h
In short: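 PEO1, PEO4 and PEO1/OlaR ovarian cancer cells, 600 per well, exposed 96 h at 37C to a dilution series. Viability read by CellTiter-Glo luminescence, normalized to DMSO and empty wells; activity summarized as Z-AUC.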

[2] = qHTS for identification of novel therapeutic agents for treatment of microphthalmiaassociated transcription factor (MiT) renal cell carcinoma (RCC) (AID 1963991); details: CellTiter-Glo, 48 h; for z-score: stronger effect = lower value
In short: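 Three TFE3-fusion RCC cell lines (UOK109, UOK124, UOK145), 500 cells/well, were exposed to the 1912-compound MIPE 4.0 library for 48 hours at 37 C. Viability was read by CellTiter-Glo luminescence, normalised to DMSO (100%) and empty wells (0%), with 11-concentration curve fits.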

[3] = measured here: PEO1 parental viability
[4] = TFE3-RCC UOK109 viability, measured here: UOK109 Z-AUC
[5] = TFE3-RCC viability, measured here: UOK124 Z-AUC
[6] = TFE3-RCC viability, measured here: UOK124 cell viability
[7] = TFE3-RCC viability, measured here: UOK145 Z-AUC
[8] = TFE3-RCC viability, measured here: UOK145 cell viability
Tags describe the fitted curve by direction and shape.

O=c1cc(N2CCOCC2)oc2c(-c3cccc4c3sc3ccccc34)cccc12
AC50 [1, 3]: 11 µM [falling, partial curve]
AC50 ([1]; measured here: PEO4 viability): 6.92 µM [falling, partial curve]
z-score [2, 4]: -0.84
z-score [2, 5]: -1.19
AC50 [2, 6]: 20.9 µM [falling, partial curve]
z-score [2, 7]: -0.112
AC50 [2, 8]: 14.8 µM [falling, partial curve]

Cc1cc(N2CCOCC2)cc2[nH]c(-c3c(NC[C@@H](O)c4cccc(Cl)c4)cc[nH]c3=O)nc12
AC50 [1, 3]: 6.92 µM [falling, partial curve]
AC50 ([1]; measured here: PEO4 viability): 6.16 µM [falling, partial curve]
z-score [2, 4]: -1.39
z-score [2, 5]: -1.01
AC50 [2, 6]: 18.7 µM [falling, partial curve]
z-score [2, 7]: -0.487
AC50 [2, 8]: 14.8 µM [falling, partial curve]

CSc1cccc(Nc2ncc3cc(-c4c(Cl)cccc4Cl)c(=O)n(C)c3n2)c1
AC50 [1, 3]: 15.5 µM [falling, partial curve]
AC50 ([1]; measured here: PEO4 viability): 19.5 µM [falling, single point]
z-score [2, 4]: -0.759
z-score [2, 5]: -0.958
AC50 [2, 6]: 0.187 µM [falling, full curve]
z-score [2, 7]: -0.511
AC50 [2, 8]: 0.418 µM [falling, full curve]

COc1cccc2c1C(=O)c1c(O)c3c(c(O)c1C2=O)C[C@@](O)(C(=O)CO)C[C@@H]3O[C@H]1C[C@H](N)[C@@H](O)[C@H](C)O1
AC50 [1, 3]: 0.245 µM [falling, full curve]
AC50 ([1]; measured here: PEO4 viability): 0.49 µM [falling, full curve]
z-score [2, 4]: -0.77
z-score [2, 5]: -0.736
AC50 [2, 6]: 0.418 µM [falling, full curve]
z-score [2, 7]: -0.498
AC50 [2, 8]: 0.833 µM [falling, full curve]

Cc1ncc(-c2ccnc(Nc3ccc(S(C)(=O)=O)cc3)n2)n1C(C)C
AC50 [1, 3]: 1.55 µM [falling, full curve]
AC50 ([1]; measured here: PEO4 viability): 1.1 µM [falling, full curve]
z-score [2, 4]: -0.531
z-score [2, 5]: 0.286
AC50 [2, 6]: 3.72 µM [falling, full curve]
z-score [2, 7]: -0.228
AC50 [2, 8]: 2.35 µM [falling, full curve]

c1ccc2c(CCNc3ccc(Nc4ccncc4)cc3)c[nH]c2c1
AC50 [1, 3]: 1.1 µM [falling, full curve]
AC50 ([1]; measured here: PEO4 viability): 1.74 µM [falling, full curve]
z-score [2, 4]: -0.473
z-score [2, 5]: 0.0561
AC50 [2, 6]: 33.2 µM [falling, single point]
z-score [2, 7]: -0.0695
AC50 [2, 8]: 20.9 µM [falling, partial curve]

COc1ccc(C(=O)CC2(O)C(=O)Nc3c(Cl)ccc(Cl)c32)cc1 (centres undefined)
AC50 [1, 3]: 1.55 µM [falling, full curve]
AC50 ([1]; measured here: PEO4 viability): 1.74 µM [falling, full curve]
z-score [2, 4]: 0.0233
z-score [2, 5]: -0.446
AC50 [2, 6]: 4.69 µM [falling, partial curve]
z-score [2, 7]: 0.38
AC50 [2, 8]: 2.35 µM [falling, full curve]

CN(C)Cc1c(C(=O)NCCOc2ccc(C(=O)NO)cc2)oc2ccccc12
AC50 [1, 3]: 0.871 µM [falling, full curve]
AC50 ([1]; measured here: PEO4 viability): 1.1 µM [falling, full curve]
z-score [2, 4]: -0.676
z-score [2, 5]: -3.69
AC50 [2, 6]: 2.96 µM [falling, full curve]
z-score [2, 7]: -0.378
AC50 [2, 8]: 5.9 µM [falling, partial curve]

O=c1[nH]nc(OCCCc2ccc(Cl)cc2)c(NCc2cccnc2)c1Br
AC50 [1, 3]: 3.47 µM [falling, full curve]
AC50 ([1]; measured here: PEO4 viability): 2.75 µM [falling, full curve, poor fit]
z-score [2, 4]: -0.0319
z-score [2, 5]: -0.16
AC50 [2, 6]: 16.6 µM [falling, partial curve]
z-score [2, 7]: -0.139
AC50 [2, 8]: 23.5 µM [falling, partial curve]

COc1ccc(F)c(F)c1C(=O)c1cnc(NC2CCN(S(C)(=O)=O)CC2)nc1N
AC50 [1, 3]: 0.616 µM [falling, full curve]
AC50 ([1]; measured here: PEO4 viability): 1.38 µM [falling, full curve]
z-score [2, 4]: -1.18
z-score [2, 5]: -0.427
AC50 [2, 6]: 2.35 µM [falling, full curve]
z-score [2, 7]: 0.117
AC50 [2, 8]: 2.35 µM [falling, full curve]

Oc1ccc(-c2ccc(-c3cc(Nc4cccc(CNC5CC5)c4)n[nH]3)cc2)c(O)c1
AC50 [1, 3]: 8.71 µM [falling, partial curve]
AC50 ([1]; measured here: PEO4 viability): 7.76 µM [falling, partial curve, poor fit]
z-score [2, 4]: -0.553
z-score [2, 5]: -1.38
AC50 [2, 6]: 13.2 µM [falling, partial curve]
z-score [2, 7]: 0.506
AC50 [2, 8]: 11.8 µM [falling, partial curve]

CC(C)C[C@H](NC(=O)c1cc2ccccc2s1)C(=O)N1CCN(C(=O)[C@H](CO)NS(=O)(=O)c2ccc(Cl)cc2Cl)CC1
AC50 [1, 3]: 24.5 µM [falling, single point]
AC50 ([1]; measured here: PEO4 viability): 13.8 µM [falling, partial curve]
z-score [2, 4]: -0.122
z-score [2, 5]: 0.541
AC50 [2, 6]: 23.5 µM [falling, single point]
z-score [2, 7]: 0.2
AC50 [2, 8]: 29.6 µM [falling, single point]
